# Hit rate of the full screen: of about 310,000 compounds, about 14,000 (4.5%) showed an effect of 50% or more. Effects have a minus sign here. The list shows a part of the results.
# Target: human ether-à-go-go-related gene (hERG) potassium channel (human, UniProt Q12809)
# Test: primary screen, population patch clamp on CHO cells stably expressing hERG
# 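Note: peak tail current of the secondary pulse compared with the same well before compound.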
# Chain of human ether-à-go-go-related gene (hERG) potassium channel (Q12809 whole entry, looked up): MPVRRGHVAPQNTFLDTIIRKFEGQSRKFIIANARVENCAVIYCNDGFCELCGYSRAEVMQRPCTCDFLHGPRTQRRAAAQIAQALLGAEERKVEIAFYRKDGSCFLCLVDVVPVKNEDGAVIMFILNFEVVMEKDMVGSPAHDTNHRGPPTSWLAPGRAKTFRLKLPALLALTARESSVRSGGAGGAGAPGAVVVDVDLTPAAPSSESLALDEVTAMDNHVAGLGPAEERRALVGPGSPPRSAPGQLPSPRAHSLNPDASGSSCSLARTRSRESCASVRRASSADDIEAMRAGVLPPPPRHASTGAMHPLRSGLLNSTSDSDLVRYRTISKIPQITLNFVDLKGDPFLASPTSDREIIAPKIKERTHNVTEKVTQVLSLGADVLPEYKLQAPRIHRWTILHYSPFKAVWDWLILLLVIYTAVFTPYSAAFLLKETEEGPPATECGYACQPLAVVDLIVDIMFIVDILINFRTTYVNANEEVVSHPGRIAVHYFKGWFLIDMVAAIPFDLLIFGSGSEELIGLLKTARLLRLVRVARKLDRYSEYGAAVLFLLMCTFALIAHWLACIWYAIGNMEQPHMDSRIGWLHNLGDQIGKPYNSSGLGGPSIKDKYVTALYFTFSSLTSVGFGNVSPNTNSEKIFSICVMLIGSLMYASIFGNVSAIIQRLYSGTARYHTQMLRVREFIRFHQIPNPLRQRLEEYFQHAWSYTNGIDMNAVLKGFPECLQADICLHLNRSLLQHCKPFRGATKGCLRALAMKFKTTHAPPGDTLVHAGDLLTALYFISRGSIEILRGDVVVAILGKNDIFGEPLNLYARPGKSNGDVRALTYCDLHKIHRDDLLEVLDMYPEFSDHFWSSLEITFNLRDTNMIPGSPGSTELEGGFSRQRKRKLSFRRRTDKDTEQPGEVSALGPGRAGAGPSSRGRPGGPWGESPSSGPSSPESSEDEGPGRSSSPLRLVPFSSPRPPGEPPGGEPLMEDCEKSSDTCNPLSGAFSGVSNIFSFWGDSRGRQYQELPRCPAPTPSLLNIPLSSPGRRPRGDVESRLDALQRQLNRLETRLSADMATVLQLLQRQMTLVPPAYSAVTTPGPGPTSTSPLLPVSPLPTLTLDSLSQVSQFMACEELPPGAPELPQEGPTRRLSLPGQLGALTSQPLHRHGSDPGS
row,Compound,"hERG current change (%, negative = inhibition) at 10uM [%]"
1,CCOc1ccc(OCc2ccc(C(=O)NCc3cccnc3)o2)cc1,-4.89
2,CCOC(=O)CC1COCCN1C(=O)CCc1nnc(-c2ccsc2)o1 (centres unmarked),3.96
3,Cc1ccc(Nc2cc(C)nc3c(C)cccc23)cc1,-53.3
4,C=CCn1c(SCC(N)=O)nc2sc3c(c2c1=O)CCC3,-2.38
5,CC1Sc2ccc(S(=O)(=O)CCC(=O)NC3CCCCC3C)cc2NC1=O (centres unmarked),-6.87
6,O=C(CS(=O)(=O)c1cn(Cc2ccc(Cl)cc2)c2ccccc12)N1CCOCC1,-28
7,CCCN(CC(=O)Nc1ccccc1C)C(=O)c1cc(C)oc1C,3
8,Cc1cc(NC(=O)Cn2cnc3c(nnn3-c3ccc(C)c(Cl)c3)c2=O)no1,2.29
9,CCc1ccc2[nH]c(C(=O)Nc3ccc(C)c(F)c3)cc2c1,23.2
10,Cc1cccc2c(N=Nc3ccc(S(=O)(=O)Nc4ccc(Cl)cc4)cc3[N+](=O)[O-])c(O)[nH]c12,31.8
11,NC(=O)CS(=O)(=O)c1nc2ccccc2n1CC(=O)N1CCCCC1,4.29
12,Cc1ccc(Nc2nc(N)nc(CN3CCN(c4ccccc4)CC3)n2)cc1Cl,-66.4
13,S=C(Nc1cccc(Cl)c1)N1CCOCC1,-12.2
14,N#Cc1c(-c2ccccc2)nc(SCC(=O)N2c3ccccc3Sc3ccccc32)[nH]c1=O,15.7
15,Nn1c(SCC(=O)Nc2cccc(S(N)(=O)=O)c2)nnc1C1CC1,9.28
16,CC1CCN(S(=O)(=O)c2ccc3c(c2)N(CC(=O)NCCN2C(C)CCCC2C)C(=O)CS3)CC1 (centres unmarked),-52.7
17,CCc1ccc(-n2c(SCc3cc(=O)n4cc(Br)ccc4n3)nc3[nH]ncc3c2=O)cc1,-51
18,CC(C)(C)C(=O)NC(=S)N1CCOCC1,7.45
19,O=C(O)CCC(=O)Nc1sc2c(c1C(=O)NC1CCCC1)CCCC2,5.76
20,Cc1cccc(-c2noc(CCCOc3ccc(Cl)cc3Cl)n2)c1,3.05
21,O=C(N/N=C/c1cccc([N+](=O)[O-])c1)c1nc2ccccc2c(=O)[nH]1,0.968
22,COc1cccc(CC(=O)OCC(=O)N(C)CC(=O)Nc2ccc(Cl)c(C(F)(F)F)c2)c1,0.214

row,Compound,"hERG current change (%, negative = inhibition) at 10uM [%]"
1,CCOc1ccc(NC(=O)CSc2nnc(C(C)C)n2CC)cc1,9.17
2,COc1ccc(/C=N/N=C2/NC(=O)C(CC(=O)O)S2)cc1OCc1ccc(Cl)cc1 (centres unmarked),-1.97
3,CS(=O)(=O)N(CC(=O)N1CCN(Cc2ccccc2)CC1)c1cccc(F)c1,-36.3
4,Cc1cc(C)nc(Nc2ccc(Cl)cc2C)n1.Cl,19.6
5,O=C(COC(=O)CCS(=O)(=O)c1ccccc1)Nc1ccc(N2CCCCC2)cc1,0.846
6,CCS(=O)(=O)c1ccc(O)c(NC(=O)Nc2ccccc2)c1,4.83
7,CC1CCCC(C(=O)O)N1C(=O)CCSSCCC(=O)N1C(C)CCCC1C(=O)O (centres unmarked),21.7
8,O=C(N/N=C/c1c[nH]c2ccccc12)c1cccc([N+](=O)[O-])c1,3.45
9,Cl.O=S(=O)(NC1CCN(Cc2ccccc2)CC1)c1ccc2ccccc2c1,8.29
10,COc1ccccc1N1C(N)=NC(N)=NC1(C)C.Cl,11.8
11,Cc1cc(C)c2sc(N(CCCN(C)C)C(=O)COc3ccc(Cl)cc3)nc2c1.Cl,-1.13
12,O=C(Nc1n[nH]c(=S)s1)c1ccco1,12.9
13,CSc1nc(N2CCCC2)c2c(c1C#N)CC(C)(C)OC2,6.19
14,CC(CCc1ccccc1)NS(=O)(=O)c1ccccc1F (centres unmarked),6.37
15,COc1ccc(NC(=O)CN(C)C(=O)c2ccc(NS(=O)(=O)c3cccc([N+](=O)[O-])c3)cc2)cc1,-0.212
16,Cn1cccc1CC(=O)N/N=C/c1cc([N+](=O)[O-])ccc1Cl,12.1
17,CCc1nc2sc(C(C)=O)c(N)c2c2c1CCCC2,22
18,Cn1c(SCC(=O)N2CCc3ccccc32)nnc1-c1ccc(S(=O)(=O)N2CCCC2)cc1,10.1
19,Cc1nn(C)c(C)c1S(=O)(=O)N(CC(=O)Nc1ccc2c(c1)OCO2)c1ccc(C(C)C)cc1,7.38
20,O=C(Cc1ccc(Br)cc1)Nc1ccccc1Cl,19.5
21,C=CCn1c(C)nc2c(cnn2-c2ccccc2)c1=O,-1.9
22,COCC(=O)Nc1nc(-c2ccc([N+](=O)[O-])cc2)cs1,42.9

# Reference: article PMC4336329 (PLoS ONE, 2015)
